According to publication PMC4336329 (PLoS ONE, 2015):
About 2,200 (0.71%) of roughly 310,000 compounds showed an effect of 50% or more. The effect is printed as a negative number. This is one part of the list.

These compounds were tested against human ether-à-go-go-related gene (hERG) potassium channel (human, UniProt Q12809) (assay: primary screen, population patch clamp on CHO cells stably expressing hERG).
human ether-à-go-go-related gene (hERG) potassium channel, sequence (Q12809 whole entry, looked up): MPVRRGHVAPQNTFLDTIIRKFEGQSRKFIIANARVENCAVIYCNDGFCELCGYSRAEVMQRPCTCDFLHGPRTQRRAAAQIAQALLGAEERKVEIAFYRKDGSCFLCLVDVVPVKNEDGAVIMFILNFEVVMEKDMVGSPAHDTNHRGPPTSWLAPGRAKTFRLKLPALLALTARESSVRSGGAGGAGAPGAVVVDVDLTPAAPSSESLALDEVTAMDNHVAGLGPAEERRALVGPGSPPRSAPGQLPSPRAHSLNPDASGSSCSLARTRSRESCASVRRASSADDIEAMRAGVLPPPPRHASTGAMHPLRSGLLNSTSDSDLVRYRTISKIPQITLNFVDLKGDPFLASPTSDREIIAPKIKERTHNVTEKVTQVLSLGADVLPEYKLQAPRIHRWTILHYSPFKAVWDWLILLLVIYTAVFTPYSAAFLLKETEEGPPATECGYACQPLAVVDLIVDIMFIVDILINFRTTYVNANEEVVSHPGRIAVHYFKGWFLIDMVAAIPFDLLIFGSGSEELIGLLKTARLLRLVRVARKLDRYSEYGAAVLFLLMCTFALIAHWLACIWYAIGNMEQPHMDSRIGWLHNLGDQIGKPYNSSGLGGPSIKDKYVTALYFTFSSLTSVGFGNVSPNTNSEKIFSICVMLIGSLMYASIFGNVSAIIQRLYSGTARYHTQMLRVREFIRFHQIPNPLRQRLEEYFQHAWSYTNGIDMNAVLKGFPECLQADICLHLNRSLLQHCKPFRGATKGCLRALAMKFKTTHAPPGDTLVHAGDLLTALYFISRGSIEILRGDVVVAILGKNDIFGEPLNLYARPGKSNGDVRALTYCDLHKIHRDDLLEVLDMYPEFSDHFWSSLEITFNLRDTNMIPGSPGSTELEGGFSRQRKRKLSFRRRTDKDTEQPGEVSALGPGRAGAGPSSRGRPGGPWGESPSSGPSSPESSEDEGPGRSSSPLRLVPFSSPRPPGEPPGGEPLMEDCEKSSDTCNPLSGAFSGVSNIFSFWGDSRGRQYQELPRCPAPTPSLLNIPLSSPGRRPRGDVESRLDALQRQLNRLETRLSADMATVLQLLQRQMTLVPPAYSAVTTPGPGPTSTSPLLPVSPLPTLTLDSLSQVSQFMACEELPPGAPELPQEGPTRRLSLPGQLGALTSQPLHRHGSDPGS

Row | Structure (SMILES) | hERG current change (%, negative = inhibition) at 1uM
1 | Cc1cnc(CNC(=O)C2CCC(=O)N(CCc3cccc(F)c3)C2)[nH]1 (stereo not shown) | 7.57%
2 | CCCCn1c(N)c(N(CC(C)C)C(=O)c2cc(-c3ccncc3)nc3ccccc23)c(=O)[nH]c1=O | 12.3%
3 | Cc1cc(C(=O)OCC(=O)Nc2sc3c(c2C#N)CCC(C)C3)c2ccccc2n1 (stereo not shown) | -1.12%
4 | Cc1cc(OCCN2CCOCC2)ccc1[N+](=O)[O-].O=C(O)C(=O)O | 10.6%
5 | C=CCn1c(=N)n(CC(O)COc2ccccc2OC)c2ccccc21.Cl (stereo not shown) | -43.5%
6 | CCOC(=O)c1cnc(-n2nc(C)cc2C)nc1NC | -0.773%
7 | CCOc1ccccc1NC(=O)Cn1nnc(C(=O)NCc2cccs2)c1N | 12.1%
8 | N#Cc1c(Nc2ccccc2)sc(C(=O)c2ccc(F)cc2)c1N | 8.25%
9 | O=C(Cn1ncc(N2CCOCC2)c(Cl)c1=O)c1ccc(Cl)cc1 | -2.13%
10 | COc1ccccc1NC(=O)Cn1nc(-c2ccc3c(c2)OCCO3)ccc1=O | 2.91%
11 | CCCc1n[nH]c(=O)[nH]1 | 7.57%
12 | COc1cc(NC(=O)C2CC3CCC2C3)c(OC)cc1Cl (stereo not shown) | 14.4%
13 | O=C(CCCc1ccccc1)Nc1ccnn1C1CCN(Cc2ccccn2)CC1 | 0.247%
14 | Cc1ccccc1NC(=O)Nc1ccc(C(F)(F)F)cc1 | 22%
15 | O=C(NC(Cc1ccc(O)cc1)C(=O)O)c1ccco1 (stereo not shown) | 14%
16 | Cc1ccc(S(=O)(=O)N2CCN(C)CC2)cc1[N+](=O)[O-] | -2.01%
17 | O=C(CCCSc1ccccc1)Nc1ccc(Cl)c(S(=O)(=O)N2CCOCC2)c1 | 9.14%
18 | CC(C)(C)OC(=O)N[C@@H](COCc1ccccc1)C(=O)N[C@@H](CO)[C@H](O)[C@@H]1C[C@@H]1C(=O)NC1CCCCC1 | 16.9%
19 | CC(C)CN(C(=O)CN1CCc2ccccc21)c1c(N)n(CC(C)C)c(=O)[nH]c1=O | 7.84%
20 | CN1CCN(S(=O)(=O)c2cccc(C(=O)Nc3cccc(S(N)(=O)=O)c3)c2)CC1 | 19.9%

Row | Structure (SMILES) | hERG current change (%, negative = inhibition) at 1uM
21 | NCC(O)COc1ccc2c(c1)OCO2 (stereo not shown) | 7.71%
22 | CCCCn1ccnc1C(=O)c1ccc(S(=O)(=O)N2CCCC2)cc1 | 10.7%
23 | O=C(c1cc(-c2cccc(Cl)c2)on1)N1CCN(c2ccc(F)cc2)CC1 | 7.74%
24 | COc1ccc(CCN2CC(C(=O)NCC3(O)CCCCC3)CCC2=O)cc1 (stereo not shown) | 17.2%
25 | O=C(COC(=O)c1ccccc1F)NC(=O)NC1CCCC1 | 13.7%
26 | CC/C(=C\C1CCCCC1)C(NP(=O)(c1ccccc1)c1ccccc1)c1ccccc1 (stereo not shown) | 12.8%
27 | Cc1cc(NC(=O)CSc2nccn2C)no1 | 2.28%
28 | COCCn1c(SCC(=O)NNC(=O)c2ccccc2)nc2ccccc2c1=O | 6.09%
29 | O=C(CCC1CCCCC1)Nc1cc(C(F)(F)F)ccc1N1CCOCC1 | 11.8%
30 | CCn1c(CC(=O)Nc2cccc(OC)c2)nnc1SCC(=O)N1CCN(c2ccccc2)CC1 | 12%
31 | CCOc1ccc(NC(=O)CCC(=O)N/N=C/c2ccc([N+](=O)[O-])s2)cc1 | -4%
32 | COCCNC(=O)c1ccc(CS(=O)(=O)c2c(Cl)cccc2Cl)o1 | 2.14%
33 | COc1ccc(C(=O)NCC(=O)N/N=C(\C)c2ccco2)cc1OC | 18.9%
34 | COC(=O)c1cccc(NC(=O)Cc2ccsc2)c1 | -2.46%
35 | Cc1ccc(-n2nc3c(c2NC(=O)c2ccccc2Br)CS(=O)C3)cc1 (stereo not shown) | 20.2%
36 | Cc1cccc(CNC(=O)c2ccccc2NC(=O)C2=CSCCO2)c1 | 15.3%
37 | CC1CCN(C(=O)COC(=O)c2cn(C)c3ccccc23)CC1 | 7.49%
38 | NC(=S)Cc1nc(-c2ccccc2)cs1 | 8.89%
39 | O=C(NCc1cccnc1)c1ccc(-c2ccccc2[N+](=O)[O-])o1 | -0.14%
40 | Cc1sc2ncn(CCn3cnc4sc(C)c(C)c4c3=O)c(=O)c2c1C | 10.3%

Row | Structure (SMILES) | hERG current change (%, negative = inhibition) at 1uM
41 | COc1ccc(NC(=O)CSc2nnc(-c3cccs3)n2N)c(OC)c1 | 10.2%
42 | O=C(O)c1cccc(-n2cccc2/C=N/O)c1 | 17.2%
43 | CN(CC(=O)N1CCCC1)S(=O)(=O)c1ccc(Cl)cc1 | -7.18%
44 | C=CCN1C(=NC(=O)CC)SC2CS(=O)(=O)CC21 (stereo not shown) | 20.1%
45 | NC(=O)C1CCCN(S(=O)(=O)c2ccc(Br)cc2)C1 (stereo not shown) | 2.8%
46 | COc1ccc(Cn2c(O)c(C=NCCN3CCOCC3)c(=O)[nH]c2=O)cc1 | -7.45%
47 | Cc1cccc(-n2cc(C(=O)O)c(=O)cc2C)c1 | 8.4%
48 | CC(C(=O)c1ccc(Br)cc1)[n+]1cccc2ccccc21.[Br-] (stereo not shown) | 3.94%
49 | O=C(c1ccccn1)N1CCCC(N2CCN(c3ccccc3)CC2)C1 (stereo not shown) | 10.2%
50 | Cc1ccccc1NC(=O)c1ccccc1O | 19.5%
51 | COc1ccc(C)cc1C(=O)C1CC(C(=O)O)C(C)(C)C1C (stereo not shown) | 6.86%
52 | CC1CN(S(=O)(=O)c2cccc(C(=O)OCCOc3ccccc3)c2)CC(C)O1 (stereo not shown) | 4.89%
53 | CC(C)(C)N/N=C/c1cc(Cl)cc([N+](=O)[O-])c1O.Cl | 7.41%
54 | O=C(CN1C(=O)c2ccccc2C1=O)OCC(=O)c1ccc(F)cc1 | 7.25%
55 | CC(C)Cc1cc(C(=O)Nc2ccc3c(c2)OCO3)no1 | 7.48%
56 | Cc1cccn2cc(-c3cccc(NC(=O)c4cccs4)c3)nc12 | 2.83%
57 | Cc1cc(C)cc(N2CCCn3c2nc2c3c(=O)[nH]c(=O)n2C)c1 | 11.8%
58 | O=C(Nc1ccc2oc(-c3cccnc3)nc2c1)c1ccc2c(c1)OCCO2 | 21.6%
